In patent US20090281042A1 (priority 2005, published 2009):
Like-named read-outs stand apart in the source and are kept apart here.

Test system: HeLa lysate
Settings: H1 lysate, Pep1 as substrate; for Reaction rate: control 119

Compound | % Inhibition (relative to control) (inhibitor 8 ug/ml) [%] | Reaction rate (inhibitor 8 ug/ml) [RFU/min] | % Inhibition (relative to control) (inhibitor 2 mM) [%] | Reaction rate (inhibitor 2 mM) [RFU/min]
Aprotinin | 3.3 | 115 | – | –
O=S(=O)(F)Cc1ccccc1 [PMSF] | – | – | 0 | 119
